Measured values as given in ChEMBL document CHEMBL4888484, “Replenishing the malaria drug discovery pipeline: Screening and hit evaluation of the MMV Hit Generation Library 1 (HGL1) against asexual blood stage Plasmodium falciparum ,using a nano luciferase reporter read-out” (2022).
In all, about 150,000 compounds went through this assay and about 540 (0.36%) showed an effect of 50% or more. Some of the results follow.

test system: Plasmodium falciparum; test: Primary screen in NF54 nanoGlo assay, in single point, at 2uM, 72h; a lower Z score goes with more inhibition; format: functional, Erythrocyte; conditions: timepoint 72 hour

| Structure (SMILES) | % Inhibition [%] | Z score |
| --- | --- | --- |
| c1cn2cnnc2c(N2CCC3(CCCCC3)C2)n1 | 10 | -1.18 |
| Cc1nc(CN(Cc2cc3c(cc2Cl)OCO3)C(C)C)no1 | -1 | 0.2 |
| O=C(CN1CCN(c2cccc(Cl)c2)C1=O)N1CC[C@H](Oc2ncc(Cl)cn2)C1 | -7 | 1.08 |
| COC1CC(NS(=O)(=O)c2ccc(Cl)s2)C1(C)C (stereo unspecified) | -12 | 2.27 |
| Cc1cc(C)c2nc(C)c(CN(C)C3CCCCC3)c(O)c2c1 | -5 | 0.85 |
| O=C(c1ccc(-c2ccc3c(c2)OC(F)(F)O3)cc1)N(CCO)CCO | 2 | -0.47 |
| c1ccc(-n2nnnc2N2CCCCCCC2)cc1 | -13 | 1.28 |
| COc1ccccc1C1(c2ccccc2OC)c2ccccc2Nc2ccccc21 | 12 | -2.35 |
| Cc1nccn1Cc1nnc(C2CCN(c3cc(C#N)ccn3)CC2)n1C | -10 | 1.31 |
| CC1=NS(=O)(=O)N(C)C=C1C(=O)OCc1ccc(N2CCCC2=O)cc1 | -12 | 1.67 |
| C[C@H]1CNC(=O)CCN1S(=O)(=O)c1cccc(C(=O)NCCF)c1 | 8 | -1.1 |
| C=CCNC(=O)C1Cc2ccccc2N2CCN(CC(=O)N3CCCC3)CC12 (stereo unspecified) | 3 | -0.35 |
| CCC(C(=O)Nc1ccc2c(c1)CN(CCc1ccc(OC)c(OC)c1)C(=O)C(C)O2)c1ccccc1 (stereo unspecified) | 91 | -17.08 |
| Cc1nc(CNC(=O)c2ccc(OC(C)(C)C)cn2)ccc1[C@H](C)O | -6 | 0.78 |
| CN(c1nnc(-c2ccon2)s1)[C@H]1CCCN(Cc2ccccc2)C1 | -33 | 3.88 |
| CCn1ccc(C(=O)Nc2c[nH]nn2)n1 | -15 | 2.76 |
| CN(Cc1nc2ccccc2s1)[C@H]1CCOC2(CCOCC2)C1 | -11 | 2.11 |
| Cn1c(CCn2ccnc2-c2cnc(N3CCCC3)s2)n[nH]c1=O | -20 | 2.59 |
| CCCn1ncc(CN2CCN(C)[C@]3(CCC(=O)N(CC4CC4)CC3)C2)c1C | -2 | 0.41 |
| CN1CCC(n2cnc(-c3ccccc3)c2-c2cccc(Cl)c2)CC1 | -5 | 0.73 |
| Cc1nn2cc(CCCO)cnc2c1C | -3 | 0.46 |
| CCn1nc(C)c(C(=O)Nc2nc(CC3CC3)ns2)n1 | -11 | 1.07 |
| COCCNC(=O)[C@@H]1COC2(CCN(C(=O)c3ccc4c(c3)OCO4)CC2)N1C(=O)c1ccc(C)cc1 | -6 | 1.14 |
